# Results from PubChem BioAssay AID1030 (National Center for Advancing Translational Sciences (NCATS), 2008).
# Hit rate of the full screen: of about 220,000 compounds, about 16,000 (7.3%) were called active. The inconclusive results got no clear call from the source; some entries with a clear call stand among them for comparison. The call rests on the fitted dose curve; in most records, active means well fitted inhibition curve with a large enough effect (not every such curve was filed as active); inconclusive means small, poorly fitted or top-dose-only effect, or another doubt; inactive means no such curve, though single readings can be large or run the other way. Potencies of inconclusive entries are left out as doubtful fits.
# Target: Aldehyde dehydrogenase 1A1 (Homo sapiens) (UniProt P00352)
# Sequence of UniProt P00352 (P00352 whole entry, looked up): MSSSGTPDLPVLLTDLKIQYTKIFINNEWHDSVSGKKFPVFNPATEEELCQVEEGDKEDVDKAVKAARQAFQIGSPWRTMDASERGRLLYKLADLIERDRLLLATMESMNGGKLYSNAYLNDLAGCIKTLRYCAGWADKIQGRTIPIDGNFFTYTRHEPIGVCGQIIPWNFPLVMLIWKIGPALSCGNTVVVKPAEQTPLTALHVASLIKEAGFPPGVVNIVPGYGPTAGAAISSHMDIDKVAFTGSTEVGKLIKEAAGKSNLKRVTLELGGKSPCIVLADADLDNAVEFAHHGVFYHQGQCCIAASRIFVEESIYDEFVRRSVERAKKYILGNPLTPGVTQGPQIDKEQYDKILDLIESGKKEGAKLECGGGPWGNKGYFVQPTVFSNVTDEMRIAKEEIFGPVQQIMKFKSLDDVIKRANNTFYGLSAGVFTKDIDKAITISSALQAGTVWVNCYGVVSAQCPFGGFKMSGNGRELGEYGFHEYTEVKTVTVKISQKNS
# Test: qHTS Assay for Inhibitors of Aldehyde Dehydrogenase 1 (ALDH1A1);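 on activity, negative = inhibition: plate controls were no enzyme wells and a reference inhibitor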
# Conditions: Purified ALDH1A1, NADH fluorescence, propionaldehyde substrate; series mostly up to 75.3 µM; activity, negative = inhibition: at the top concentration
# Potency means the concentration at half of the fitted maximal effect; tags describe the fitted curve by direction and shape.
SMILES,"activity, negative = inhibition",Potency
O=C(COc1ccccc1)N1CCN(C(=O)Cc2ccccc2)CC1,inactive: -1.69%,
COC(=O)c1cc(=O)nc2sc3ccccc3n12,,"inconclusive [inhibitor, single point]"
Cc1csc(SCc2nnc(-c3ccccc3Br)o2)n1,,"inconclusive [inhibitor, partial curve]"
Cc1ccc(/C=C(/NC(=O)c2ccccc2)C(=O)NCCc2c[nH]c3ccccc23)o1,,active: 28.2 µM
Cc1ccc2nsnc2c1NC(=O)c1sc2ccccc2c1Cl,,"inconclusive [inhibitor, single point]"
O=C(c1nc2nc(-c3ccc(Cl)cc3)cc(C(F)(F)F)n2n1)N1CCOCC1,,"inconclusive [inhibitor, single point]"
Cc1c(NC(=O)c2cc(-c3ccco3)on2)c(=O)n(-c2ccccc2)n1C,,"inconclusive [inhibitor, single point]"
c1ccc(-c2oc3ncnc(N4CCOCC4)c3c2-c2ccccc2)cc1,,"inconclusive [inhibitor, full curve, poor fit]"
COC(=O)c1[nH]c2cccc(OC)c2c1NC(=O)CCN1CC(C)CC(C)C1 (stereo unspecified),,"inconclusive [inhibitor, single point]"
CCCc1cc(N2CCCC(C(=O)Nc3ccc(OC)cc3OC)C2)n2ncnc2n1 (stereo unspecified),,"inconclusive [inhibitor, partial curve]"
Cn1c(CN2CCCC2)c(C#N)c2ccccc21,inactive: -8.96%,
CCN(CC)S(=O)(=O)c1ccc(NC(=O)COC(=O)c2cnc(C)cn2)cc1,,"inconclusive [inhibitor, single point]"
COC(=O)C(NC(=O)c1c(C)nn(C)c1Cl)c1ccccc1 (stereo unspecified),inactive: 1.79%,
C=CCN(CC(=O)NC1CCS(=O)(=O)C1)S(=O)(=O)c1ccccc1C(F)(F)F (stereo unspecified),inactive: 11.6%,
Cc1csc2ncc(C(=O)N3c4ccccc4CC3C)c(=O)n12 (stereo unspecified),,"inconclusive [inhibitor, single point]"
CCN(CC)S(=O)(=O)c1ccc(C(=O)Nc2cccc(C)c2)cc1,,"inconclusive [inhibitor, single point]"
CCN1C(=O)/C(=C\C(=O)c2cccs2)c2cc(Br)ccc21,,active: 11.2 µM
CN(CCc1cn[nH]c1)Cc1nc(Cc2ccccc2)no1,,"inconclusive [inhibitor, full curve]"
CCOc1cc2c(cc1C=O)OC(C)C2 (stereo unspecified),,active: 25.1 µM
C=C(C)CNC(=S)N/N=C\c1ccc2c(c1)OCO2,inactive: 5.2%,
CCn1c(=S)ccc2ccc(OC)cc21,inactive: 12.4%,
